PubChem BioAssay AID1745853 (National Center for Advancing Translational Sciences (NCATS), 2022)
Where “and” joins values, the source holds several entries; their conditions need not be identical. Equal values may be shown once. The list shows a part of the results. Further columns of the screen follow, without active or inactive calls.

What was measured:
Experiment in all cases: Primary Screen for Target Class Profiling of Small Molecule Inhibitors of Methyltransferases
[1] = biological target: Glycine N-methyltransferase (Homo sapiens) (UniProt Q14749); conditions: purified enzyme, MTase-Glo SAH luminescence; measured here: GNMT inhibition; at 40 µM; stronger effect = lower value
Method in brief: (§1)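 Each enzyme was assayed with SAM and its substrate. SAH formation detected by MTase-Glo luminescence; single-point 40 uM screen[…].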

[2] = biological target: Guanidinoacetate N-methyltransferase (Homo sapiens) (UniProt Q14353); conditions: purified enzyme, MTase-Glo SAH luminescence; measured here: GAMT inhibition; at 40 µM; stronger effect = lower value
Method in brief: as §1

[3] = biological target: Histamine N-methyltransferase (Homo sapiens) (UniProt P50135); conditions: purified enzyme, MTase-Glo SAH luminescence; measured here: HNMT inhibition; at 40 µM; stronger effect = lower value
Method in brief: as §1

[4] = biological target: Nicotinamide N-methyltransferase (Homo sapiens) (UniProt P40261); conditions: purified enzyme, MTase-Glo SAH luminescence; measured here: NNMT inhibition; at 40 µM; stronger effect = lower value
Method in brief: as §1

[5] = biological target: Phenylethanolamine N-methyltransferase (Homo sapiens) (UniProt P11086); conditions: purified enzyme, MTase-Glo SAH luminescence; measured here: PNMT inhibition; at 40 µM; stronger effect = lower value
Method in brief: as §1
On the % scale 0 is the no-effect control and ±100 the full control effect.

Structure (SMILES) | activity change, negative = inhibition [1] [%] | activity change, negative = inhibition [2] | activity change, negative = inhibition [3] [%] | activity change, negative = inhibition [4] | activity change, negative = inhibition [5]
CNC12CC3C[C@@](C)(C1)C[C@](C)(C3)C2 | -5.14 | -12.2% | -7.45 | -16.7% | -0.672%
COC(=O)CNC(=O)c1cc(-c2ccc(Cl)cc2Cl)c2cnn(C)c2n1 | -7.49 | -6.1% | -5.29 | -34% | -9.46%
O=C1CO[C@H]2CN(Cc3ncc[nH]3)C[C@H]2N1Cc1ccc(F)cc1 | -5.47 | -5.81% | -3.65 | -6.08% | 9.81%
COc1ccc(CNC(=O)c2cc3n(n2)CC(C)(C(=O)NCc2ccc(F)cc2)N(C)C3=O)cc1OC (stereo not drawn) | -6.24 | -3.19% | -1.53 | -3.72% | -5.08%
CCCn1c(=O)c2ccc(C(=O)NC(C)C)cc2n2c(SCc3cccc(C)c3)nnc12 | 3.77 | 0.677% | 1.63 | -5.24% | -3.6%
COc1cc(NC(=O)Cn2nc3n(CCC(C)C)c(=O)c4ccccc4n3c2=O)cc(OC)c1 | 2.13 | 6.65% | 5.68 | -0.611% | 2.7%
O=C(CC1CCN(S(=O)(=O)c2ccc(F)cc2F)C1)NCc1ccccc1 (stereo not drawn) | -9.33 | -15.5% | -5.28 | -13.6% | -10.3%
CC(C)OCCCNC(=O)CCn1ccc2cc(S(=O)(=O)N3CCCCC3)ccc21 | 10.1 | 2.65% | 7.5 | 9.74% | 5.49%
CC(C)CCn1c(=O)c2ccccc2n2c(=O)n(CC(=O)Nc3ccccc3F)nc12 | 0.604 | 4.66% | -1.6 | -3.96% | 4.6%
CCCN1CCN(C(=O)c2cc3n(n2)CC(C)(C(=O)NC2CCCC2)N(C)C3=O)CC1 (stereo not drawn) | -3.59 | 4.73% | -3.15 | 1.44% | 0.666%
c1ccc(CNc2nc(-c3ccccc3)no2)cc1 | -7.53 | -8.32% | -5.17 | -10.2% | -5.98%
CCOC(=O)c1cc2n(n1)CC(C)(C(=O)NC1CCC(C)CC1)N(c1ccccc1OC)C2=O (stereo not drawn) | 1.03 | -1.23% | 4.38 | -2.25% | 0.537%
CC(C)n1nc(Cc2cccc3ccccc23)c2c(N)ncnc21 | – | -10.5% | – | -44.6% | -55.3%
O=C(NCc1ccc(F)cc1)c1ccc2c(=O)nc3c(-c4ccccc4)n[nH]n3c2c1 | -7.69 | 1.59% | -2.09 | -4.34% | -0.27%
C=C1C[C@]23C[C@H]1CC[C@H]2[C@@]12C=C[C@H](O)[C@@](C)(C(=O)O1)[C@H]2[C@@H]3C(=O)O | 4.12 | 2.08% | 5.76 | -9.97% | 3.2%
CC(C(=O)NCc1ccc(Cl)cc1)n1ccc2cc(S(=O)(=O)N3CCCCC3)ccc21 (stereo not drawn) | 4.56 | 0% | 7.64 | 2.36% | 3.66%
CNC(=O)c1noc([C@@H]2CC(F)(F)CN2C(=O)CCOC)n1 | 0.278 | 2.5% | 0.866 | -1.38% | -2.31%
C=C1C[C@@]2(O)O[C@@]3(C[C@H]2C(C)C)[C@@H](C)CC[C@@H]13 | -0.649 | 6.18% | 11.5 | -9.5% | 3.1%
Cc1cc(C)c(-c2csc(NC(=O)c3ccccc3)n2)c(C)c1 | 0.432 | -14.7% | 0.974 | -24.5% | -11.1%
CCOc1ccccc1CN1C(=O)c2cc3ccc(OC)cc3n2CC1(C)C(=O)NC1CCCCC1 (stereo not drawn) | 0.632 | 4.76% | -1.57 | -1.84% | -3.23%
O=C(O)COCCN1CCN(C(c2ccccc2)c2ccc(Cl)cc2)CC1 (stereo not drawn) | -1.07 | 8.23% | 4.01 | -12.1% | 4.54%
CCOC(=O)c1cc2n(n1)CC(C)(C(=O)NC1CCCCCC1)N(Cc1ccc(OCC)cc1)C2=O (stereo not drawn) | -1.28 | 2.07% | -0.612 | -7.1% | -1.69%
Cc1cccc(CNC(=O)C2CC(c3ccc(F)c(C)c3)CN(C(=O)c3ccccc3)C2)c1 (stereo not drawn) | -3.45 | 1.5% | -0.218 | -3.58% | -0.434%
O=C(Cn1ccn2nc3c(c2c1=O)CCCCC3)NCc1ccccc1Cl | -7.34 | -10.6% | -3.39 | -7.48% | -6.22%
O=C(COc1ccccc1)N1C[C@@H](CO)[C@H](c2ccccn2)C1 | -3.26 | -2.38% | 0.509 | -5.24% | 0.639%
CN1C[C@H](C(=O)N[C@]2(C)O[C@@]3(O)[C@@H]4CCCN4C(=O)[C@H](Cc4ccccc4)N3C2=O)C[C@@H]2c3cccc4[nH]cc(c34)C[C@H]21 | -33.6 | 12.4% | -0.576 | -4.44% | 1.28%
Cc1cc(C)cc(NC(=O)CSc2nnc3n(Cc4ccccc4)c(=O)c4ccccc4n23)c1 | 4.57 | 0% | 7.19 | 6.86% | 5.6%
CC(C)OCCCNC(=O)c1ccc2c(=O)nc3c(-c4ccccc4)n[nH]n3c2c1 | -1.15 | 1.8% | 3.29 | 0.103% | -1.32%
CCN1CCN(c2nc3c(S(=O)(=O)c4ccc(Br)cc4)nnn3c3ccccc23)CC1 | -4.85 | 1.45% | -31.3 | 2.7% | -2.03%
Cn1cc(-c2cnn3c(N)c(Br)c([C@@H]4CCCNC4)nc23)cn1 | -7.07 | -2.29% and -1.06% | -77.1 | -26.1% and -21.3% | -63% and -63.4%
